Changes are numbered by the printed parent chain; changes in the protein carry UniProt numbers. The list shows a part of the results.

Experimental findings from PMC9911399, “Two distinct binding modes provide the RNA-binding protein RbFox with extraordinary sequence specificity” are described below.

B1: CCAAGAC (DNA:RNA)
RNA: GGGAGACCGGAAUUCAGAUUGUCCCCAAGACUUAAAUCCCGUCGUAGCCACCA
DNA 1: CAATCTGAATTCCGGTCTCCC
DNA 2: TGGTGGCTACGACGGGATT
B2: GUUUGCG (DNA:RNA)
RNA: B1 RNA with C25G, C26U, A27U, A28U, A30C, C31G
DNA 1: CAATCTGAATTCCGGTCTCCC
DNA 2: TGGTGGCTACGACGGGATT
B3: AGUGGGU (DNA:RNA)
RNA: B1 RNA with C25A, C26G, A27U, A28G, A30G, C31U
DNA 1: CAATCTGAATTCCGGTCTCCC
DNA 2: TGGTGGCTACGACGGGATT
B4: CCUGACU (DNA:RNA)
RNA: B1 RNA with A27U, A28G, G29A, A30C, C31U
DNA 1: CAATCTGAATTCCGGTCTCCC
DNA 2: TGGTGGCTACGACGGGATT
B5: CGCACCU (DNA:RNA)
RNA: B1 RNA with C26G, A27C, G29C, A30C, C31U
DNA 1: CAATCTGAATTCCGGTCTCCC
DNA 2: TGGTGGCTACGACGGGATT
B6: AGUAUAG (DNA:RNA)
RNA: B1 RNA with C25A, C26G, A27U, G29U, C31G
DNA 1: CAATCTGAATTCCGGTCTCCC
DNA 2: TGGTGGCTACGACGGGATT
B7: GCCCCUG (DNA:RNA)
RNA: B1 RNA with C25G, A27C, A28C, G29C, A30U, C31G
DNA 1: CAATCTGAATTCCGGTCTCCC
DNA 2: TGGTGGCTACGACGGGATT
B8: ACUAGGG (DNA:RNA)
RNA: B1 RNA with C25A, A27U, A30G, C31G
DNA 1: CAATCTGAATTCCGGTCTCCC
DNA 2: TGGTGGCTACGACGGGATT
B9: GCCCGAG (DNA:RNA)
RNA: B1 RNA with C25G, A27C, A28C, C31G
DNA 1: CAATCTGAATTCCGGTCTCCC
DNA 2: TGGTGGCTACGACGGGATT
B10: CAUAAUA (DNA:RNA)
RNA: B1 RNA with C26A, A27U, G29A, A30U, C31A
DNA 1: CAATCTGAATTCCGGTCTCCC
DNA 2: TGGTGGCTACGACGGGATT
B11: CCCCCAU (DNA:RNA)
RNA: B1 RNA with A27C, A28C, G29C, C31U
DNA 1: CAATCTGAATTCCGGTCTCCC
DNA 2: TGGTGGCTACGACGGGATT
B12: UAAGGAC (DNA:RNA)
RNA: B1 RNA with C25U, C26A, A28G
DNA 1: CAATCTGAATTCCGGTCTCCC
DNA 2: TGGTGGCTACGACGGGATT
B13: CGUCACG (DNA:RNA)
RNA: B1 RNA with C26G, A27U, A28C, G29A, A30C, C31G
DNA 1: CAATCTGAATTCCGGTCTCCC
DNA 2: TGGTGGCTACGACGGGATT
B14: ACAAGUU (DNA:RNA)
RNA: B1 RNA with C25A, A30U, C31U
DNA 1: CAATCTGAATTCCGGTCTCCC
DNA 2: TGGTGGCTACGACGGGATT
B15: AUAAUUA (DNA:RNA)
RNA: B1 RNA with C25A, C26U, G29U, A30U, C31A
DNA 1: CAATCTGAATTCCGGTCTCCC
DNA 2: TGGTGGCTACGACGGGATT
B16: UAGGGGC (DNA:RNA)
RNA: B1 RNA with C25U, C26A, A27G, A28G, A30G
DNA 1: CAATCTGAATTCCGGTCTCCC
DNA 2: TGGTGGCTACGACGGGATT
B17: CAGGCUU (DNA:RNA)
RNA: B1 RNA with C26A, A27G, A28G, G29C, A30U, C31U
DNA 1: CAATCTGAATTCCGGTCTCCC
DNA 2: TGGTGGCTACGACGGGATT
B18: AGCCAUG (DNA:RNA)
RNA: GGGAGACCGGAAUUCAGAUUGUCCAGCCAUGUUAAAUCCCGUCGUAGCCACCA
DNA 1: CAATCTGAATTCCGGTCTCCC
DNA 2: TGGTGGCTACGACGGGATT
B19: CCACCAA (DNA:RNA)
RNA: B1 RNA with A28C, G29C, C31A
DNA 1: CAATCTGAATTCCGGTCTCCC
DNA 2: TGGTGGCTACGACGGGATT
B20: AUAGAUG (DNA:RNA)
RNA: B18 RNA with G26U, C27A, C28G
DNA 1: CAATCTGAATTCCGGTCTCCC
DNA 2: TGGTGGCTACGACGGGATT
B21: GUGGUGU (DNA:RNA)
RNA: GGGAGACCGGAAUUCAGAUUGUCCGUGGUGUUUAAAUCCCGUCGUAGCCACCA
DNA 1: CAATCTGAATTCCGGTCTCCC
DNA 2: TGGTGGCTACGACGGGATT
B22: GCCAGAU (DNA:RNA)
RNA: B1 RNA with C25G, A27C, C31U
DNA 1: CAATCTGAATTCCGGTCTCCC
DNA 2: TGGTGGCTACGACGGGATT
B23: ACCCACC (DNA:RNA)
RNA: B18 RNA with G26C, U30C, G31C
DNA 1: CAATCTGAATTCCGGTCTCCC
DNA 2: TGGTGGCTACGACGGGATT
B24: UUUCAAU (DNA:RNA)
RNA: B18 RNA with A25U, G26U, C27U, U30A, G31U
DNA 1: CAATCTGAATTCCGGTCTCCC
DNA 2: TGGTGGCTACGACGGGATT
B25: GGAGAGG (DNA:RNA)
RNA: B18 RNA with A25G, C27A, C28G, U30G
DNA 1: CAATCTGAATTCCGGTCTCCC
DNA 2: TGGTGGCTACGACGGGATT
B26: AUGCAGG (DNA:RNA)
RNA: B18 RNA with G26U, C27G, U30G
DNA 1: CAATCTGAATTCCGGTCTCCC
DNA 2: TGGTGGCTACGACGGGATT
B27: AACUGUU (DNA:RNA)
RNA: B18 RNA with G26A, C28U, A29G, G31U
DNA 1: CAATCTGAATTCCGGTCTCCC
DNA 2: TGGTGGCTACGACGGGATT
B28: GGGCAAA (DNA:RNA)
RNA: B18 RNA with A25G, C27G, U30A, G31A
DNA 1: CAATCTGAATTCCGGTCTCCC
DNA 2: TGGTGGCTACGACGGGATT
B29: CAAAGAA (DNA:RNA)
RNA: B1 RNA with C26A, C31A
DNA 1: CAATCTGAATTCCGGTCTCCC
DNA 2: TGGTGGCTACGACGGGATT
B30: GCGAACU (DNA:RNA)
RNA: B21 RNA with U26C, G28A, U29A, G30C
DNA 1: CAATCTGAATTCCGGTCTCCC
DNA 2: TGGTGGCTACGACGGGATT
B31: AUUUAGC (DNA:RNA)
RNA: B18 RNA with G26U, C27U, C28U, U30G, G31C
DNA 1: CAATCTGAATTCCGGTCTCCC
DNA 2: TGGTGGCTACGACGGGATT

In this test the target is T1, RBFOX1 RRM (Homo sapiens, UniProt Q9NWB1 109-208).
T1 sequence: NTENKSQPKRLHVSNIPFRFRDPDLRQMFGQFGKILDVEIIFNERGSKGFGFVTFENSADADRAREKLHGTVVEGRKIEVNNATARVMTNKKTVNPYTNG
The test is described as follows: EMSA; HiTS-Eq, 1 nM pool, 10 min; buffer printed only for the single-RNA assays: 10 mM Tris pH 7.5, 150 mM NaCl, 3.4 mM EDTA, 0.001% NP-40, 30 C. The settings on record: tags: His6 N-terminal (pET28a); label: 5' 32P. A digest of the protocol: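 A pool of RNA with 7 randomized nucleotides, 5′-radiolabelled and with DNA-annealed flanks, was equilibrated at 1 nM for 10 min in 50 µL with purified RbFox RRM, wild type or mutant, across increasing protein concentrations. Free RNA was separated by 8% native PAGE, excised, reverse-transcribed, barcoded by PCR and sequenced. Relative association constants were obtained from read-count changes of each RNA species versus the control reaction and normalised to the cognate motif.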
On to B1, for which the binding signal was 0.00366 KA relative to UGCAUGU.

B2: the binding signal was 0.0282 KA relative to UGCAUGU. The result for B3 reads 0.0107 KA relative to UGCAUGU; that for B4, 0.0116 KA relative to UGCAUGU; that for B5, 0.0111 KA relative to UGCAUGU. As for B6, the binding signal was 0.00549 KA relative to UGCAUGU. The result for B7 reads 0.016 KA relative to UGCAUGU; that for B8, 0.00548 KA relative to UGCAUGU; that for B9, 0.0155 KA relative to UGCAUGU. As to B10, the binding signal is 0.000351 KA relative to UGCAUGU. As to B11, the binding signal was 0.00472 KA relative to UGCAUGU. As for B12, the figure is 0.00395 KA relative to UGCAUGU. For B13, the binding signal was 0.00726 KA relative to UGCAUGU. The result for B14 reads 0.00111 KA relative to UGCAUGU; that for B15, 0.000991 KA relative to UGCAUGU; that for B16, 0.00528 KA relative to UGCAUGU. Take B17: the binding signal is 0.0134 KA relative to UGCAUGU. Turning to B18, the binding signal was 0.0102 KA relative to UGCAUGU.

Consider B19, for which the binding signal is 0.000328 KA relative to UGCAUGU. With B20, the binding signal is 0.00871 KA relative to UGCAUGU.

Consider B21, for which the binding signal is 0.0221 KA relative to UGCAUGU. As for B22, the figure is 0.011 KA relative to UGCAUGU; as for B23, 0.000895 KA relative to UGCAUGU; as for B24, 0.00374 KA relative to UGCAUGU. As to B25, the binding signal is 0.0192 KA relative to UGCAUGU. In the case of B26, the binding signal was 0.014 KA relative to UGCAUGU. As for B27, the figure is 0.00468 KA relative to UGCAUGU; as for B28, 0.0043 KA relative to UGCAUGU; as for B29, 0.000523 KA relative to UGCAUGU. B30: the binding signal was 0.00939 KA relative to UGCAUGU.

Take B31: the binding signal is 0.00445 KA relative to UGCAUGU.
